Assay results published in the supplement of paper PMC8728848.
This is one part of the list.

Legend:
Assay in all cases: glycan array binding signal (z-score within array); higher = stronger binding
Settings in all cases: glycan notation: IUPAC condensed, linker removed
[1] = molecular target: Fuc(a1-2)[Gal(a1-3)]Gal(b1-4)GlcNAc(b1-2)Man
Summary of the method: (§1)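 The binding signal is a Z-score computed within each array. Data were drawn from 3228 arrays in the Consortium for Functional Glycomics database, restricted to those with a known protein sequence. Scores were averaged over arrays of the same protein sequence at different concentrations or buffers, and over linkers, and negative values can be taken as non-binding.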

[2] = molecular target: Fuc(a1-2)[Gal(a1-3)]Gal(b1-4)GlcNAc(b1-2)Man(a1-3)[Fuc(a1-2)[Gal(a1-3)]Gal(b1-4)GlcNAc(b1-2)Man(a1-6)]Man(b1-4)GlcNAc(b1-4)GlcNAc
Summary of the method: as §1

[3] = molecular target: Fuc(a1-2)[Gal(a1-3)]Gal(b1-4)GlcNAc(b1-2)Man(a1-3)[Fuc(a1-2)[Gal(a1-3)]Gal(b1-4)GlcNAc(b1-2)Man(a1-6)]Man(b1-4)GlcNAc(b1-4)[Fuc(a1-6)]GlcNAc
Summary of the method: as §1

[4] = molecular target: Fuc(a1-2)[Gal(a1-3)]Gal(b1-4)GlcNAc(b1-3)GalNAc
Summary of the method: as §1

[5] = molecular target: Fuc(a1-2)[Gal(a1-3)]Gal(b1-4)GlcNAc(b1-3)[Fuc(a1-2)[Gal(a1-3)]Gal(b1-4)GlcNAc(b1-6)]GalNAc
Summary of the method: as §1

[6] = molecular target: Fuc(a1-2)[Gal(a1-3)]Gal(b1-4)GlcNAc(b1-6)GalNAc
Summary of the method: as §1

[7] = molecular target: Fuc(a1-2)[Gal(a1-3)]Gal(b1-4)[Fuc(a1-3)]Glc
Summary of the method: as §1

[8] = molecular target: Fuc(a1-2)[Gal(a1-3)]Gal(b1-4)[Fuc(a1-3)]GlcNAc
Summary of the method: as §1

[9] = molecular target: Fuc(a1-2)[Gal(a1-3)]Gal(b1-4)[Fuc(a1-3)]GlcNAc(b1-3)GalNAc
Summary of the method: as §1

[10] = molecular target: Fuc(a1-2)[Gal(a1-4)]Gal(b1-4)GlcNAc
Summary of the method: as §1

[11] = molecular target: Fuc(a1-2)[GalNAc(a1-3)]Gal
Summary of the method: as §1

[12] = molecular target: Fuc(a1-2)[GalNAc(a1-3)]Gal(b1-3)GalNAc(a1-3)[Fuc(a1-2)]Gal(b1-4)GlcNAc
Summary of the method: as §1

[13] = molecular target: Fuc(a1-2)[GalNAc(a1-3)]Gal(b1-3)GalNAc(b1-3)Gal(a1-4)Gal(b1-4)Glc
Summary of the method: as §1

[14] = molecular target: Fuc(a1-2)[GalNAc(a1-3)]Gal(b1-3)GlcNAc
Summary of the method: as §1

[15] = molecular target: Fuc(a1-2)[GalNAc(a1-3)]Gal(b1-3)GlcNAc(b1-2)Man(a1-3)[Fuc(a1-2)[GalNAc(a1-3)]Gal(b1-3)GlcNAc(b1-2)Man(a1-6)]Man(b1-4)GlcNAc(b1-4)GlcNAc
Summary of the method: as §1

[16] = molecular target: Fuc(a1-2)[GalNAc(a1-3)]Gal(b1-3)GlcNAc(b1-2)Man(a1-3)[Fuc(a1-2)[GalNAc(a1-3)]Gal(b1-3)GlcNAc(b1-2)Man(a1-6)]Man(b1-4)GlcNAc(b1-4)[Fuc(a1-6)]GlcNAc
Summary of the method: as §1

[17] = molecular target: Fuc(a1-2)[GalNAc(a1-3)]Gal(b1-3)GlcNAc(b1-3)GalNAc
Summary of the method: as §1

[18] = molecular target: Fuc(a1-2)[GalNAc(a1-3)]Gal(b1-3)GlcNAc(b1-6)GalNAc
Summary of the method: as §1

[19] = molecular target: Fuc(a1-2)[GalNAc(a1-3)]Gal(b1-4)Glc
Summary of the method: as §1

[20] = molecular target: Fuc(a1-2)[GalNAc(a1-3)]Gal(b1-4)GlcNAc
Summary of the method: as §1

[21] = molecular target: Fuc(a1-2)[GalNAc(a1-3)]Gal(b1-4)GlcNAc(b1-2)Man
Summary of the method: as §1

[22] = molecular target: Fuc(a1-2)[GalNAc(a1-3)]Gal(b1-4)GlcNAc(b1-2)Man(a1-3)[Fuc(a1-2)[GalNAc(a1-3)]Gal(b1-4)GlcNAc(b1-2)Man(a1-6)]Man(b1-4)GlcNAc(b1-4)GlcNAc
Summary of the method: as §1

[23] = molecular target: Fuc(a1-2)[GalNAc(a1-3)]Gal(b1-4)GlcNAc(b1-2)Man(a1-3)[Fuc(a1-2)[GalNAc(a1-3)]Gal(b1-4)GlcNAc(b1-2)Man(a1-6)]Man(b1-4)GlcNAc(b1-4)[Fuc(a1-6)]GlcNAc
Summary of the method: as §1

[24] = molecular target: Fuc(a1-2)[GalNAc(a1-3)]Gal(b1-4)GlcNAc(b1-3)Gal(b1-4)GlcNAc
Summary of the method: as §1

[25] = molecular target: Fuc(a1-2)[GalNAc(a1-3)]Gal(b1-4)GlcNAc(b1-3)Gal(b1-4)GlcNAc(b1-3)Gal(b1-4)GlcNAc
Summary of the method: as §1

[26] = molecular target: Fuc(a1-2)[GalNAc(a1-3)]Gal(b1-4)GlcNAc(b1-3)GalNAc
Summary of the method: as §1

[27] = molecular target: Fuc(a1-2)[GalNAc(a1-3)]Gal(b1-4)GlcNAc(b1-3)[Fuc(a1-2)[GalNAc(a1-3)]Gal(b1-4)GlcNAc(b1-6)]GalNAc
Summary of the method: as §1

[28] = molecular target: Fuc(a1-2)[GalNAc(a1-3)]Gal(b1-4)GlcNAc(b1-6)GalNAc
Summary of the method: as §1

[29] = molecular target: Fuc(a1-2)[GalNAc(a1-3)]Gal(b1-4)[Fuc(a1-3)]GlcNAc
Summary of the method: as §1

[30] = molecular target: Fuc(a1-2)[GalNAc(a1-3)]Gal(b1-4)[Fuc(a1-3)]GlcNAc(b1-3)GalNAc
Summary of the method: as §1

[31] = molecular target: Fuc(a1-2)[GalNAc(a1-4)]Gal(b1-4)GlcNAc
Summary of the method: as §1

[32] = molecular target: Fuc(a1-2)[GalNAc(b1-3)]Gal
Summary of the method: as §1

Fuc(a1-3)GlcNAc = molecular target: Fuc(a1-3)GlcNAc
Summary of the method: as §1

[33] = molecular target: Fuc(a1-3)[Gal(b1-4)]Glc6S
Summary of the method: as §1

[34] = molecular target: Fuc(a1-3)[Gal(b1-4)]GlcNAc
Summary of the method: as §1

[35] = molecular target: Fuc(a1-3)[Gal(b1-4)]GlcNAc(b1-2)Man
Summary of the method: as §1

[36] = molecular target: Fuc(a1-3)[Gal(b1-4)]GlcNAc(b1-2)Man(a1-3)[Fuc(a1-3)[Gal(b1-4)]GlcNAc(b1-2)Man(a1-6)]Man(b1-4)GlcNAc(b1-4)GlcNAc
Summary of the method: as §1

B1: LCA (Lens culinaris), P02870 (protein)
chain: MASLQTQMISFYLIFLSILLTTIFFFKVNSTETTSFSITKFSPDQKNLIFQGDGYTTKGKLTLTKAVKSTVGRALYSTPIHIWDRDTGNVANFVTSFTFVIDAPSSYNVADEFTFFIAPVDTKPQTGGGYLGVFNSKEYDKTSQTVAVEFDTFYNAAWDPSNKERHIGIDVNSIKSVNTKSWNLQNGERANVVIAFNAATNVLTVTLTYPNSLEEENVTSYTLNEVVPLKDVVPEWVRIGFSATTGAEFAAHEVHSWSFHSELGGTSSSKQAADA
glycan array binding signal (z-score) [1]: -0.213 | glycan array binding signal (z-score) [2]: -0.214 | glycan array binding signal (z-score) [3]: 0.979 | glycan array binding signal (z-score) [4]: -0.22 | glycan array binding signal (z-score) [5]: -0.222 | glycan array binding signal (z-score) [6]: -0.239 | glycan array binding signal (z-score) [7]: -0.22 | glycan array binding signal (z-score) [8]: -0.18 | glycan array binding signal (z-score) [9]: -0.226 | glycan array binding signal (z-score) [10]: -0.217 | glycan array binding signal (z-score) [11]: -0.216 | glycan array binding signal (z-score) [12]: -0.237 | glycan array binding signal (z-score) [13]: -0.193 | glycan array binding signal (z-score) [14]: -0.223 | glycan array binding signal (z-score) [15]: -0.245 | glycan array binding signal (z-score) [16]: 0.539 | glycan array binding signal (z-score) [17]: -0.179 | glycan array binding signal (z-score) [18]: -0.268 | glycan array binding signal (z-score) [19]: -0.232 | glycan array binding signal (z-score) [20]: -0.215 | glycan array binding signal (z-score) [21]: -0.205 | glycan array binding signal (z-score) [22]: -0.228 | glycan array binding signal (z-score) [23]: 0.305 | glycan array binding signal (z-score) [24]: -0.225 | glycan array binding signal (z-score) [25]: -0.048 | glycan array binding signal (z-score) [26]: -0.205 | glycan array binding signal (z-score) [27]: -0.236 | glycan array binding signal (z-score) [28]: -0.253 | glycan array binding signal (z-score) [29]: -0.095 | glycan array binding signal (z-score) [30]: -0.132 | glycan array binding signal (z-score) [31]: -0.22 | glycan array binding signal (z-score) [32]: -0.257 | glycan array binding signal (z-score) (Fuc(a1-3)GlcNAc): -0.186 | glycan array binding signal (z-score) [33]: -0.182 | glycan array binding signal (z-score) [34]: -0.209 | glycan array binding signal (z-score) [35]: -0.24 | glycan array binding signal (z-score) [36]: -0.237
